Consider 55 compounds from paper PMC4336329 (PLoS ONE, 2015).

Out of some 310,000 compounds screened, about 14,000 (4.5%) showed an effect of 50% or more. Effects have a minus sign here. Some of the results follow.
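Further: peak tail current of the secondary pulse compared with the same well before compound.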

The target of this test is human ether-à-go-go-related gene (hERG) potassium channel (human, UniProt Q12809). Briefly: primary screen, population patch clamp on CHO cells stably expressing hERG.
human ether-à-go-go-related gene (hERG) potassium channel, sequence (Q12809 whole entry, looked up): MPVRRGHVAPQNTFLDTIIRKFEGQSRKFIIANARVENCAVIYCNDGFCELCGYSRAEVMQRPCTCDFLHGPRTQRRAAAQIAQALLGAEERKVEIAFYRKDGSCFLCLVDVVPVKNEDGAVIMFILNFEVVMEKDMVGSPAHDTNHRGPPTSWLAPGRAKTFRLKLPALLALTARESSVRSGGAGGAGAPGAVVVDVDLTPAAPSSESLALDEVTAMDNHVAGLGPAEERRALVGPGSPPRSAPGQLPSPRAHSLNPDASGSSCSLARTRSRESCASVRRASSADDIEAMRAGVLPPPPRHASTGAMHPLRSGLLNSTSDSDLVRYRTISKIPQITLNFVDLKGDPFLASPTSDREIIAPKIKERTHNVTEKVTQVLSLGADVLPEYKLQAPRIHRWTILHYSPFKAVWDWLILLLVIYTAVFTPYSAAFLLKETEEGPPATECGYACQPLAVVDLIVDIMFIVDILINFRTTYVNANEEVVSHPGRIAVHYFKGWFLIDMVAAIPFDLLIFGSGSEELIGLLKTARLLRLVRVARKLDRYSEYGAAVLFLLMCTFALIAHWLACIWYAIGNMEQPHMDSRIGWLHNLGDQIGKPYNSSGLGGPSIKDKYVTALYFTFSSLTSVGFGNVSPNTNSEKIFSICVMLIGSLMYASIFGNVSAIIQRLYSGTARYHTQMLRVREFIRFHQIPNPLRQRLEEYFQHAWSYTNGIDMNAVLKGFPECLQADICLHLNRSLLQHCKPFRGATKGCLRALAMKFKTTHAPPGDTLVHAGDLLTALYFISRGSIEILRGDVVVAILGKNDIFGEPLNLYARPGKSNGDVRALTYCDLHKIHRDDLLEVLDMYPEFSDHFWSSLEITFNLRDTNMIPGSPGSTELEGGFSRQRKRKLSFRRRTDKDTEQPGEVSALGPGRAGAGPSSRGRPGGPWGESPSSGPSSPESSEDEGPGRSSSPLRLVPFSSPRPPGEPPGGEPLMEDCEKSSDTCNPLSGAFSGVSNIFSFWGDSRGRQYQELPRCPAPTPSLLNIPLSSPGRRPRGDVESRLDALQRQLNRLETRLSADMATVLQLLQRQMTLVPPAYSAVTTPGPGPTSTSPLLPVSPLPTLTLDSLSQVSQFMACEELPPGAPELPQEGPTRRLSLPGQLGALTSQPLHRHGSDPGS
Regarding `CCCc1nc(N2CCN(C)CC2)c2sc(=S)n(-c3ccccc3)c2n1`, the “hERG current change (%, negative = inhibition) at 10uM” value is listed as 6.76%.

In the case of `Cc1ccc(N2C(=O)N3[C@H](c4cccc(C)c4)[C@@H]4C(=O)N(Cc5ccccc5)C(=O)[C@@H]4[C@]3(C)C2=O)cc1`, the “hERG current change (%, negative = inhibition) at 10uM” value amounted to 10.3%.

`Cn1cc(C(=O)NP(=O)(N2CCOCC2)N2CCOCC2)c2ccccc21`: the “hERG current change (%, negative = inhibition) at 10uM” value was 29.7%.

On to `CCc1nccn1CCC(=O)N1CCCC(N2CCN(c3ccccc3C)CC2)C1` (stereo not shown), for which the “hERG current change (%, negative = inhibition) at 10uM” value is -10.3%.

Consider `O=C(N/N=C/c1ccc(-c2cccc(C(F)(F)F)c2)o1)c1ccccc1O`, for which the “hERG current change (%, negative = inhibition) at 10uM” value is recorded as 3.25%.

For the compound `CC1(C)CC(=O)C/C(=N\NC(=O)CCc2ccc(S(=O)(=O)N3CCOCC3)cc2)C1`, the “hERG current change (%, negative = inhibition) at 10uM” value is recorded as 7.04%.

Take `O=C(COc1ccccc1)Nc1ccc2c(c1)C(=O)N(CC1CCCO1)C2=O` (stereo not shown): the “hERG current change (%, negative = inhibition) at 10uM” value is 6.03%.

`CCOC(=O)N1CCN(C(=O)c2cc3cc(OC)c(OC)cc3[nH]2)CC1`: the “hERG current change (%, negative = inhibition) at 10uM” value was 5.96%.

In the case of `CCc1ccc2[nH]c(C(=O)Nc3ccc4c(c3)OCO4)cc2c1`, the “hERG current change (%, negative = inhibition) at 10uM” value came out at 18.8%.

Consider `O=S1(=O)CCO[C@H]2Cc3ccccc3[C@H]2N1Cc1ccccc1F`, for which the “hERG current change (%, negative = inhibition) at 10uM” value was -9.34%.

For `Nc1n[nH]c(-c2ccc([N+](=O)[O-])cc2[N+](=O)[O-])n1`, the “hERG current change (%, negative = inhibition) at 10uM” value turned out to be 15.4%.

In the case of `CCOc1ccc(S(=O)(=O)Nc2ncn[nH]2)cc1`, the “hERG current change (%, negative = inhibition) at 10uM” value is reported as 6.66%.

Consider `COc1ccc2c(Cl)c(C(=O)N/N=C/c3cccnc3)sc2c1`, for which the “hERG current change (%, negative = inhibition) at 10uM” value came to 13%.

For the compound `COc1ccc2nc(NC(=O)CN3C(=O)NC4(CCCCC4)C3=O)sc2c1`, the “hERG current change (%, negative = inhibition) at 10uM” value is given as 14.2%.

As to `COC(=O)c1cccc(NC(=O)CSc2nnnn2C)c1`, the “hERG current change (%, negative = inhibition) at 10uM” value is listed as 19.4%.

Consider `O=C(NC(=S)NNC(=O)c1cnccn1)c1ccc(F)cc1`, for which the “hERG current change (%, negative = inhibition) at 10uM” value is recorded as 12.6%.

Take `C=C1CCN([C@@H](Cc2ccccc2)C(=O)NCc2ccc(Cl)c(Cl)c2)S(=O)(=O)c2ccccc21`: the “hERG current change (%, negative = inhibition) at 10uM” value is 10.8%.

Take `CC(SCc1ccccc1)C(=O)Nc1ccccc1Br` (stereo not shown): the “hERG current change (%, negative = inhibition) at 10uM” value was -1.28%.

For the compound `CC[C@@H]1Cc2cc(O)ccc2C2=C1c1ccc(O)cc1C[C@H]2CC`, the “hERG current change (%, negative = inhibition) at 10uM” value is listed as -14.3%.

Regarding `CN1C(=O)N(CN2CCCCC2)C2C1N(C)C(=O)N2CN1CCCCC1` (stereo not shown), the “hERG current change (%, negative = inhibition) at 10uM” value is -19.9%.

As for `C=CCn1c(-c2cccs2)nc2nc3ccccc3nc21`, the “hERG current change (%, negative = inhibition) at 10uM” value is recorded as -15.6%.

On to `CCOP(=O)(C#CC(C)(C)C)C(C)(O)c1ccccc1` (stereo not shown), for which the “hERG current change (%, negative = inhibition) at 10uM” value turned out to be 14%.

`O=C1C=C(c2ccnc3cc(Cl)ccc23)C[C@@H](c2ccc3c(c2)OCO3)C1`: the “hERG current change (%, negative = inhibition) at 10uM” value is listed as -26.3%.

Turning to `CCc1ccc(C2C(C(=O)O)c3ccccc3C(=O)N2C)cc1` (stereo not shown), the “hERG current change (%, negative = inhibition) at 10uM” value was -1.37%.

`O=C(NC1(Cc2ccc(O)cc2)CCCCC1)c1ccccc1`: the “hERG current change (%, negative = inhibition) at 10uM” value is -23.3%.

Consider `CC1(O)N(Cc2ccccc2)C(=O)OC12CCCCC2` (stereo not shown), for which the “hERG current change (%, negative = inhibition) at 10uM” value is on record as 9.89%.

Take `Cc1ccc(NC(=O)C2CCN(S(=O)(=O)c3ccc4c(c3)OCCO4)CC2)c(O)c1`: the “hERG current change (%, negative = inhibition) at 10uM” value is recorded as -8.51%.

For the compound `Cc1cc(C)n(CC(O)COc2ccccc2Br)n1` (stereo not shown), the “hERG current change (%, negative = inhibition) at 10uM” value was found to be 7.02%.

Regarding `COc1ccccc1N(CC(O)CN1CCCCC1)S(=O)(=O)c1ccc(C)cc1` (stereo not shown), the “hERG current change (%, negative = inhibition) at 10uM” value is -29.7%.

With `O=C(NCc1ccncc1)c1ccc(Cl)c(S(=O)(=O)N2CCCCC2)c1`, the “hERG current change (%, negative = inhibition) at 10uM” value was -22.4%.

Consider `Cc1cc(C)nc(NC(=O)Nc2ccc3c(c2)OCO3)c1`, for which the “hERG current change (%, negative = inhibition) at 10uM” value is 13.3%.

Turning to `COc1ccccc1/C=N/n1c(N)c(S(=O)(=O)c2cccs2)c2nc3ccccc3nc21`, the “hERG current change (%, negative = inhibition) at 10uM” value was 11%.

As to `CC(Sc1nc(O)c(-c2ccccc2)c(=O)[nH]1)C(=O)Nc1ccc(Cl)cc1` (stereo not shown), the “hERG current change (%, negative = inhibition) at 10uM” value turned out to be 26.9%.

With `Cc1cc(C)n(C2CC(=O)N(c3cc(Cl)cc(Cl)c3)C2=O)n1` (stereo not shown), the “hERG current change (%, negative = inhibition) at 10uM” value turned out to be 4.5%.

Regarding `CN=C1SC(CC(=O)Nc2ccc(C(=O)O)cc2)C(=O)N1C` (stereo not shown), the “hERG current change (%, negative = inhibition) at 10uM” value is reported as 2.83%.

For `O=C(Cn1cnc2c(nc3n2CCCCC3)c1=O)Nc1cccc(C(F)(F)F)c1`, the “hERG current change (%, negative = inhibition) at 10uM” value is -52.3%.

Take `CCOC(=O)c1c(NC(=O)CC2Sc3ccc(C(F)(F)F)cc3NC2=O)sc(C)c1C` (stereo not shown): the “hERG current change (%, negative = inhibition) at 10uM” value was found to be 8.96%.

For `CC(C)c1nnc(NC(=O)CS(=O)(=O)Cc2ccccc2)s1`, the “hERG current change (%, negative = inhibition) at 10uM” value is recorded as 1.77%.

With `N#CCN1CCC2(O)CCCCC2C1c1ccc2c(c1)OCO2` (stereo not shown), the “hERG current change (%, negative = inhibition) at 10uM” value was -27.9%.

As to `CC(=O)Nc1ccc(S(=O)(=O)NCCSCc2c(Cl)cccc2Cl)cc1`, the “hERG current change (%, negative = inhibition) at 10uM” value was 8.43%.

In the case of `O=C(CCN1C(=O)S/C(=C\c2ccc(Cl)cc2)C1=O)Nc1ccc(C(=O)O)cc1`, the “hERG current change (%, negative = inhibition) at 10uM” value is listed as 14.9%.

In the case of `CCCNC(=O)C1CCN(c2ccc(S(=O)(=O)N3CCOCC3)cc2Cl)CC1`, the “hERG current change (%, negative = inhibition) at 10uM” value is listed as 6.36%.

For `O=C1CC(C(=O)Nc2ccccc2)C2(CCCC2)O1` (stereo not shown), the “hERG current change (%, negative = inhibition) at 10uM” value came to 3.49%.

Turning to `COc1ccc(OC)c(C2CC(c3ccc(NS(C)(=O)=O)cc3)=NN2C(=O)c2ccccc2)c1` (stereo not shown), the “hERG current change (%, negative = inhibition) at 10uM” value is reported as -67.2%.

`CCOP(=O)(OCC)/C(=N/OC(=O)c1ccc(OC)cc1)C(N)=O`: the “hERG current change (%, negative = inhibition) at 10uM” value is 20.7%.

Turning to `O=C(N/N=C/C=C/c1ccccc1)c1ccc(Br)cc1`, the “hERG current change (%, negative = inhibition) at 10uM” value is listed as -6.53%.

As to `Cc1ccc(Nc2nc(NCCO)nc3c2cnn3C)cc1Cl`, the “hERG current change (%, negative = inhibition) at 10uM” value was determined as 11.7%.

With `CCN(c1cccc(C(F)(F)F)c1)S(=O)(=O)c1ccc2c(c1)CCN2C(C)=O`, the “hERG current change (%, negative = inhibition) at 10uM” value is recorded as -2.77%.

With `O=C(Nc1nccs1)c1cc2c(s1)CCCCC2`, the “hERG current change (%, negative = inhibition) at 10uM” value is reported as 6.98%.

Consider `CCOC(=O)c1ccc(NC(=O)CN2C(=O)C(CC)SC(CC)C2=O)cc1` (stereo not shown), for which the “hERG current change (%, negative = inhibition) at 10uM” value is on record as -9.04%.

Take `C=CCOC(=O)C1=C[C@H](C2CCCCC2)C[C@H](OCc2ccc(CO)cc2)O1`: the “hERG current change (%, negative = inhibition) at 10uM” value was -1.78%.

For the compound `COc1cccc(CN2CCNC(=O)C2CC(=O)NCC2CCOCC2)c1` (stereo not shown), the “hERG current change (%, negative = inhibition) at 10uM” value stood at 15.9%.

Consider `O=c1[nH]c2ccccc2cc1-c1nnn(-c2ccc(Cl)c(Cl)c2)n1`, for which the “hERG current change (%, negative = inhibition) at 10uM” value was 5.79%.

Turning to `COc1ccc(CCN(C)C(=O)N2CCOCC2)cc1OC`, the “hERG current change (%, negative = inhibition) at 10uM” value is recorded as 15.3%.

With `O=C(OCc1ccc(F)cc1)c1cc(S(=O)(=O)N2CCCCC2)ccc1N1CCOCC1`, the “hERG current change (%, negative = inhibition) at 10uM” value is on record as 2.16%.
